# Experimental data taken from publication PMC6919601, “Identification of Plasmodium dipeptidyl aminopeptidase allosteric inhibitors by high throughput screening” (PLoS ONE, 2019).
# Among all 110,000 compounds or so, about 230 (0.21%) showed an effect of 50% or more. The list shows a part of the results.
# Target: DPAP1 (Plasmodium falciparum, UniProt Q8IIJ9)
# Test: primary screen, percent inhibition; read by cleavage of a fluorogenic dipeptide substrate; higher = more effect of the substance
# Set-up: species or system P. falciparum D10 trophozoite lysates; single well
# 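Also: 30 min substrate incubation versus DMSO and 10 µM JCP410 controls.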
# Chain of DPAP1 (Q8IIJ9 whole entry, looked up): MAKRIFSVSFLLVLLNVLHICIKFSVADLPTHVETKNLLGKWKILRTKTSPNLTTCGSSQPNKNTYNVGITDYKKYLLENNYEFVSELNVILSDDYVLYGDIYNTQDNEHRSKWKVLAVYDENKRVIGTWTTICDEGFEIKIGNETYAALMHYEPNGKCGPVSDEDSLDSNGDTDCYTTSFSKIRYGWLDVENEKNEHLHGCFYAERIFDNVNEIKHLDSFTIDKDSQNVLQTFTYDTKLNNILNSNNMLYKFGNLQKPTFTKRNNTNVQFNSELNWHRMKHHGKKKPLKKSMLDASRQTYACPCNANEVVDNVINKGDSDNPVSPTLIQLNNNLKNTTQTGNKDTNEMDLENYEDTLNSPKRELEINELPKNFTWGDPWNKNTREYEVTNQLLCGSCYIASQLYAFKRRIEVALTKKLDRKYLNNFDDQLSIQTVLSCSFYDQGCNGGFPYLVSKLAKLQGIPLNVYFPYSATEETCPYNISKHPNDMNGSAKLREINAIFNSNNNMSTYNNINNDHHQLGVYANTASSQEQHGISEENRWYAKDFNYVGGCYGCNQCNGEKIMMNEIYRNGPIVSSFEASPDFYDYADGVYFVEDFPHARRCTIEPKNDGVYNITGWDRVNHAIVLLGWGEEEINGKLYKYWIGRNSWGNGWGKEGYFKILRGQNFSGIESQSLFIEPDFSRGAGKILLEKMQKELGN
row,SMILES,% Inhibition @ 10 uM
1,COc1ccc(CCNC(=O)c2ccc(CS(=O)(=O)Cc3ccc(C)cc3)o2)cc1OC,0.514%
2,Cc1ccc(NC(=O)COc2ccc(S(=O)(=O)NC(C)(C)C)cc2)cc1Cl,-3.37%
3,Clc1cccc(N2CCN(C3CCN(CCc4ccccc4)CC3)CC2)c1,-3.82%
4,CCC(Oc1ccccc1)C(=O)Nc1c(C)cccc1C (stereo not shown),-0.132%
5,O=C(COc1ccc(Br)cc1)NCCC1=CCCCC1,0.245%
6,Cc1nc2c(oc3nc(-c4ccco4)c4c(c32)CC(C)(C)OC4)c(-c2ccccc2)c1C(=O)O,-1.06%
7,Cc1c2c(nc3c(C)cccc13)OC(C)C2 (stereo not shown),-2.24%
8,O=C(Nc1noc2ccccc12)C(F)(F)F,-2.85%
9,Nc1nc2ccccc2n1Cc1ccc(Cl)cc1,-2.2%
10,Oc1ccccc1C(=S)N1CCOCC1,4.68%
11,CSc1ncc2c(n1)SC(C(=O)N1CCN(c3cccc(Cl)c3)CC1)C2=O (stereo not shown),-3.58%
12,O=C(c1cc2ccccc2o1)c1nc2c(n1O)CCCC2,-7.33%
13,CCCc1nnc(NC(=O)CCN2C(=O)C3C4C=CC(C4)C3C2=O)s1 (stereo not shown),-0.551%
14,CC(C)CCN1C(=O)c2ccc(C(=O)Nc3cnc(O)nc3O)cc2C1=O,4.85%
15,COc1ccc(/C=C2/C(=N)N3OC(C)=CC3=NC2=O)cc1Cl,-1.43%
16,C/C(Cl)=C/Cn1c(SCc2ccccc2)nc2c1c(=O)[nH]c(=O)n2C,2.46%
17,COc1ccc2oc(=O)c(C(=O)NCc3cccnc3)cc2c1,-1.92%
18,CN(C)CCNc1sc(S(C)(=O)=O)nc1S(=O)(=O)c1ccc(Cl)cc1,-0.522%
19,O=C1c2ccccc2S(=O)(=O)N1Cc1ccc(Cl)cc1Cl,1.97%
20,CCN1CCC(NCc2ccc(Cl)cc2Cl)CC1,-3.74%
21,CC(CNC(=O)c1ccc2nc(N3CCCCC3)sc2c1)c1ccccc1 (stereo not shown),2.65%
22,CCOc1cc(/C=C2\C(=O)ON=C2c2ccc(Cl)cc2)ccc1OC,-1.17%
23,CC(NC(=O)C(C)N1C(=O)C2C3C=CC(C3)C2C1=O)c1ccccc1 (stereo not shown),-3.33%

row,SMILES,% Inhibition @ 10 uM
1,Nc1cc(-c2nc3ccccc3s2)ccc1Br,-0.294%
2,CC/N=C1/SC(CC(=O)Nc2ccccc2Cl)C(=O)N1C1CCCCC1 (stereo not shown),-1.98%
3,CN(Cc1ccccc1)C(=O)Cn1nnc2sc3c(c2c1=O)CCCC3,0.758%
4,CCOc1cc(C2Nc3ccccc3N=C3CC(c4cccs4)CC(O)=C32)ccc1OC (stereo not shown),4.11%
5,O=C(N1CCn2c3c(c4cc(C5CCCCC5)ccc42)CCCC31)C12CC3CC(CC(C3)C1)C2 (stereo not shown),-7.07%
6,Cc1ccc(CNC(=O)CN(C)S(=O)(=O)c2ccc3nc(C)sc3c2)cc1,-2.25%
7,O=C1C2C=COC2C2c3ccccc3CCC2N1Cc1ccccc1 (stereo not shown),0.727%
8,COC(=O)c1cc(S(=O)(=O)N2CCN(Cc3ccccc3)CC2)cn1C,3.92%
9,CCC(CC)C(=O)Nc1cccc(C(C)=O)c1,5.24%
10,Cn1ncc([N+](=O)[O-])c1C(=O)Nc1ccc(C(=O)O)cc1,-0.216%
11,COc1ccc(CCc2nc(C)cc(CN(C)C)c2O)cc1OC,1.54%
12,O=C(Nc1nn2c(-c3ccco3)nnc2s1)c1ccccc1,32.4%
13,Cc1cccc(C(=O)Nc2sc3c(c2C(=O)N(C)C)CCCCC3)c1,1.03%
14,CC(C)CC(NC(=O)c1cnc(-c2ccncc2)s1)C(=O)NCC#N (stereo not shown),-3.97%
15,CCN1CCc2c(sc(N)c2C(=O)OC)C1,-0.0309%
16,CCCCc1nn2c(=O)cc(CSc3n[nH]c(CC(C)C)n3)nc2s1,-4.14%
17,CC(=O)NC1=NC(=O)CC(c2ccccc2Cl)N1 (stereo not shown),0.331%
18,CCNC(=S)N1CCc2cc(OC)c(OC)cc2C1COc1ccc(F)cc1 (stereo not shown),4.37%
19,N#Cc1c(N)nc2c(c1-c1ccc(Cl)cc1)CCC2,30%
20,Cc1cc(C)c2nc(N3CCC(C(=O)NCCCN4C(C)CCCC4C)CC3)sc2c1 (stereo not shown),0.137%
21,CCNC(=S)NCCc1c(C)[nH]c2ccc(C)cc12,-2.16%
22,CCNCC(O)COc1ccccc1 (stereo not shown),-2.91%
23,OCCN(Cc1ccccc1)Cc1c(F)cccc1Cl,-3.27%

row,SMILES,% Inhibition @ 10 uM
1,CC1CCCC(C)N1CCCNC(=O)C1CCN(c2ncnc3c2nc2n3CCCCC2)CC1 (stereo not shown),-2.46%
2,CCOC(=O)c1cc(C(=O)NCc2ccccc2)c(O)nc1C,4.1%
3,CC(=O)Nc1ccc(C2(C#N)CCCC2)cc1,5.31%
4,Cc1ccnc(N2COc3ccc4c(-c5ccccc5)cc(=O)oc4c3C2)c1,-3.9%
5,CN1CCN(c2ccc(NC(=O)c3ccc(Cl)cc3Cl)cc2)CC1,2.43%
6,Cc1noc(C)c1CCNC(=O)CCc1c(C)nc2c(c1C)c(=O)n(C)c(=O)n2C,3.75%
7,O=C(c1ccccc1F)N1CCN(Cc2cccc3ccccc23)CC1,-2.94%
8,CCN(CC)CC(C)CNC(=O)C1CCN(S(=O)(=O)CC)CC1 (stereo not shown),-4.83%
9,CC(C)(C)C1CCc2c(sc(N)c2C(N)=O)C1 (stereo not shown),15.5%
10,O=c1/c(=C/c2ccco2)sc2nc(-c3cccs3)nn12,-1.52%
11,CCOC(=O)N1CCN(C(=O)C2CCN(C(=O)c3ccccc3C)CC2)CC1,-3.41%
12,CCOC(=O)c1c(NC(=O)CNC(C)(C)C)sc2c1CCCCC2,2.92%
13,COC(=O)c1sccc1S(=O)(=O)N1CCCCC1,0.762%
14,O=S(=O)(Nc1ccc(Cl)c(Cl)c1)c1ccc(F)cc1,3.27%
15,O=C(CSc1nnc(-c2ccc(Br)cc2)o1)NCc1ccccc1,-5.6%
16,Cc1ccccc1NC(=O)CN1C(=O)C2C3CCC(C3)C2C1=O (stereo not shown),-1.79%
17,CC12CN3CC(C)(CN(C1)C3c1ccccc1O)C2 (stereo not shown),1.62%
18,O=c1/c(=C/c2ccccc2F)sc2nc(-c3cccc(Cl)c3)nn12,5.44%
19,CSc1nc2n(n1)C(c1ccccc1Cl)C1=C(O)CC(C)(C)CC1=N2 (stereo not shown),-3.37%
20,CNC(=O)NC1CCCCc2sccc21 (stereo not shown),7.47%
21,COc1ccc(NC(=O)Nc2cccc(C(F)(F)F)c2)cc1,3%
